According to the supplement of paper PMC10126150:
Values marked as one replicate rest on one cluster of the flow cell; about a third of the high ones do not repeat.

System: ATP
Assay: switch fluorescence ratio, 500 uM ATP over buffer (Cy3 cluster intensity, sum of 5 cycles each) (fold (ratio)); higher = stronger signal-on switching upon ATP binding; sequences stand for … in TCGTCGGCAGCGTCAGATGTGTATAAGAGACAGTTTTTTTTTTTTTTTTTTTTTTTTT…TC
Details: aptamer strand: ATP DNA aptamer (quencher-CACCTGGGGGAGTATTGCGGAGGAAGG + anchor), 100 nM annealed; ATP concentration: 500 uM; one replicate
How it was run: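 Switching-strand clusters labelled with Cy3 on a modified Illumina MiSeq flow-cell were annealed to 100 nM quencher-labelled ATP aptamer, imaged in selection buffer, and re-imaged after 15 min with 500 uM ATP at 22 °C. This was done over five cycles with NaOH stripping and re-annealing in between. The fluorescence ratio is summed target-cycle over summed buffer-cycle Cy3 intensity per cluster, averaged per switch-domain sequence, excluding clusters outside 100-1000 RFU.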
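Further: ATP exposure 15 min at 22 °C before imaging.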

Sequence | switch fluorescence ratio
CCAGCCAAAA | 1.18
GGTCCGGCCA | 0.961
TGTCTAAAGG | 1.01
TTTTCGGGAG | 1.01
GCCGGTCTTG | 0.937
TGCTTCCGAT | 2.01
GGCCAAGATA | 1.04
TTCGGGCATC | 1.06
TGCAATATGT | 1.56
TAAAAGTACG | 1.03
AGATGTAAGA | 1.01
TAGGTCTGAA | 1
CCGGTGGCGG | 1.04
AAGCCTGGCT | 0.967
GGATGCGCCC | 1.02
AGCGGTCTGT | 0.964
GAATCTCTTG | 0.977
TAGCCGCGAC | 1.81
GTCGCACACT | 1.17
ACTTGTTGTG | 1.04
GGGTCCCCTG | 0.986
TCTGTTAAG | 0.964
GCTTTAGATA | 0.967
TACATAGTCG | 1.03
CATATGGTCA | 1
TCAGTACACG | 1.04

Sequence | switch fluorescence ratio
ACAGTTAGGC | 1
GCCCCGCTAT | 2.61
TAGAATGTAT | 0.958
TGGCCAGTAA | 1
GAACTGCAAC | 1.48
AAATCTCGGC | 1.01
TGTTAAAGGC | 0.973
CGTTCGGTAC | 3.26
TATCTCCTGT | 1.01
TTGGGCGTAG | 0.999
GGTAACTGGT | 1
GTAGATATAC | 1.54
AAGTTTACGA | 1.02
GAGTTTGTAG | 0.953
TAAGTGTTG | 0.98
GCTTCTTCT | 0.998
CGCGACTGCC | 1.21
CTCCGGCAGG | 2.36
GTGTGTTAAG | 0.973
GAACATCAGC | 1.04
CCCGTACCTC | 1.55
GTTAAAGTAA | 1.01
ACATAGCCA | 1.05
GCAGGGATCT | 1
CGAAACAGCG | 0.988
GGTCTGAGTT | 1.02

Sequence | switch fluorescence ratio
AACGCATGCG | 0.97
ACGGCAAAGA | 1.04
GAAGTACGTG | 1.17
ACGGCTCGGG | 0.989
AGCTAGTTT | 0.941
TCGAATAATC | 1.04
AAGAGGGATA | 1.06
GGGGGGGCG | 0.96
ATCCAGCATA | 1.7
AGGGCGGGT | 1.11
GTTTCACCGT | 0.963
TCCAAAGTGA | 1.26
TTTTCTGCGG | 1.17
CGCGCACTGA | 1.08
GACACCGAAG | 0.99
CCTTTGCGAA | 2.86
CAATATGGTA | 0.987
TTGGCGCCGG | 0.941
GCGTCAATCG | 1.02
ACCTAGGTGT | 2.34
TAGATTATTC | 0.987
GCGAGATAAA | 0.952
ATCTACTAGC | 1.06
GATTTCCACG | 1.04
GTAATTCTTC | 1
CGAATCAAAG | 1.01

Sequence | switch fluorescence ratio
CAGCGACAAT | 1.23
ATTGTATGGC | 1.01
GATGGAGTGG | 0.971
AGAATCAAGT | 1.01
CTGGTAGTAG | 1.01
GGTCCCTGAC | 1.02
CGGCCAGGCA | 0.969
TTCGAGAGGC | 1.14
TAAAATTC | 1
TGTCCTCAGG | 1.25
GCAGGAGCCG | 0.975
AGGTCGTTGA | 0.95
AGGGTTCAGA | 1.01
GCGAGCACGA | 1.02
CTGTGTCCGT | 0.978
GGCCCCGGAA | 1.47
TTTCGCTTGG | 1
TGAAGGTTG | 0.977
TTGTTGACC | 1.01
AGTAGAGCTG | 0.952
GATAGTTGTC | 0.996
CATATTCTG | 0.976
GTACCCAGGT | 1.07
GTTAACTGCC | 1.08
TATTAAGCCG | 0.986
TTAAAAGG | 0.936

Sequence | switch fluorescence ratio
GCTCTCCTGG | 1.32
CCGATTATGG | 1.11
GGTGTCGAGG | 1.02
AGATGGGAG | 0.955
CCGCACAAGG | 2.88
AGTGTTTAGG | 1.04
CCAACGAGTC | 1.18
TATTCTGCTG | 1.04
GACCGTTCAC | 1.15
TACATTTACA | 1.19
CGTAGGCGAA | 0.97
AAAGTTACAC | 1.13
TGTTTTCCT | 1
AGGCGAGGAA | 0.997
AATTTTACCA | 1.06
GATCCTAGCA | 1.06
CTTTGTTAAC | 0.958
ATGTTACTCC | 1.21
TACCCATTTA | 1
TTATCAATAG | 1.03
TCGTGCTCTA | 0.996
AGATTGACTC | 1.05
AGGAGTATT | 1
CGGCGAAT | 0.961
GACTTGCA | 1.1
CCGTTGGAGA | 1.05

Sequence | switch fluorescence ratio
TACACACATC | 1.21
GTCGAAGGAG | 1.03
TGGATTAGG | 0.972
TGAGGGCATA | 1.56
CACAAGTCGG | 0.988
ACGAGCTCAC | 1.26
GATTTCGAGG | 1
AACTTGCGGC | 1.01
ATTGCGCGG | 1.01
ATCCATATAG | 1
TCTGATTAAC | 0.992
TCACGGCTGT | 1.03
TGGGACCTAG | 1.01
TGCACGTGGG | 0.996
CCTGGGCTGC | 1.67
GGTGACAGTT | 1.02
GGTCGGTTAA | 1.01
ACCACGGCTC | 0.979
GGCTAAGTAA | 1.03
TTAACAAAGG | 0.982
CGTGCTGGTC | 1.08
CGTTCTTTGC | 1.02
ATATTCGGTT | 1
AGGACGAGCT | 1.06
